56 variants from the RNAGym collection of RNA variant scans (doi:10.7554/elife.90254) can be followed below.

B1: LINE1-mini (parent)
chain: GGCAGAGCUCAACACAGCGUGGCAAAGUGGCUGUGGCUAGACUGCC

Read counts are not given, so values of variants with three or more changes are uncertain.

In the series the parent is B1. The series is described as follows: self-cleavage, relative activity (ratio to wild type); higher = more cleavage; in vitro, sequencing; the parent is a self-cleaving ribozyme.
Consider GGCAGAGCUGGACACAGCGUGGAAAAGUGGCUGUGGCUAGAAUGCC [C10G A11G C23A C42A], for which the self-cleavage came out at 0.

With GGCAGAGCUAAACACAGCGUGGCAAAGUGGCGGCGGCUAGACUGCC [C10A U32G U34C], the self-cleavage stood at 0.02.

In the case of GGCAGAGCUAAACACAGCGUGGCAAAGUCGCAGUGACUAGACUGCC [C10A G29C U32A G36A], the self-cleavage is 0.01.

On to GGCAGAGCUGCACACACCGUGGCAAAGUGGCUGUGGCUAGACUCGC [C10G A11C G17C G44C C45G], for which the self-cleavage was 0.

For the variant GGCAGAGCUAAACACAGCGUGGCAAAGUGUCUUUGGCUAGACUGCC [C10A G30U G33U], the self-cleavage came out at 0.05.

Regarding GGCAGAGCUGAACACGGCGUCGCUAAAUGGCUGUGGCUAGACUCCC [C10G A16G G21C A24U G27A G44C], the self-cleavage amounted to 0.04.

GGCAGAGCUGAACACAGCGUGGGACAGUGGCUGUGGCUAGACUGCC [C10G C23G A25C]: the self-cleavage is 0.1.

As for GGCAGAGCUGGGCAUAGCGUGGCAAAGGGGCUGUCCCUAGACUGCC [C10G A11G A12G C15U U28G G35C G36C], the self-cleavage came out at 0.

In the case of GGCAGAGCUAAACACAGCGGGGCAAAGUGGGUGUGGCCAGACUGCC [C10A U20G C31G U38C], the self-cleavage is 0.02.

Regarding GGCAGAGCUGAACACCGCGUGGCAAAGUGGCUGUGGCUAGAUUGCC [C10G A16C C42U], the self-cleavage was found to be 0.03.

As to GGCAGAGCUAAACACAGCGUGGCAAAGUGGCUGGGGUUAGACAGCC [C10A U34G C37U U43A], the self-cleavage stood at 0.

As to GGCAGAGCUGCACACAGCGUGGCAAAGUGGCUGUGGCUAGACUCCC [C10G A11C G44C], the self-cleavage is 0.02.

For GGCAGAGCUGAACACAGCGUGGCUAAGUGGCUGUAUCUUGACUGCC [C10G A24U G35A G36U A39U], the self-cleavage worked out at 0.01.

Regarding GGCAGAGCUGAACACAGCGUGGCAACGUGGCUGUGGCUUGUCUGCC [C10G A26C A39U A41U], the self-cleavage came out at 0.04.

As to GGCAGAGCUAAACACAGCGUGGCAAACUGGCUGUGGAUAGACUGCC [C10A G27C C37A], the self-cleavage was determined as 0.01.

Turning to GGCAGAGCUGAGCAACGCGUGGCAAAGUGGCUGUGCCUAGAUGGCC [C10G A12G C15A A16C G36C C42U U43G], the self-cleavage is 0.

As to GGCAGAGCUAAACACAGCGUGGCAAACUGUCUAUGGCUAGACUGCC [C10A G27C G30U G33A], the self-cleavage amounted to 0.02.

For GGCAGAGCUGAACACCGCGUGGCAAAGUGGAUGUCGCUAGCCAGCC [C10G A16C C31A G35C A41C U43A], the self-cleavage was found to be 0.01.

In the case of GGCAGAGCUAAACACAGCGUGGCAAAAUGUCUGUGGCUAGCAUGCC [C10A G27A G30U A41C C42A], the self-cleavage was determined as 0.

With GGCAGAGCUGACCACAGCGUGGCAUAGUGGCUCUGGCUAGACUGCC [C10G A12C A25U G33C], the self-cleavage was 0.01.

Take GGCAGAGCUAAACACAGCGUGGCAAAGGGGCUGUGGCGAGACUGCC [C10A U28G U38G]: the self-cleavage turned out to be 0.01.

Consider GGCAGAGCUGUACACAGCGUGGCAAAGUGGAUGUGGCUAGACUGCC [C10G A11U C31A], for which the self-cleavage amounted to 0.05.

Regarding GGCAGAGCUGAACACUGCGCGGCAAAGUGGCUGUGGCUAGACUGUC [C10G A16U U20C C45U], the self-cleavage was 0.04.

As for GGCAGAGCUGAACCCAACGUGGCAUAGUGGCUGUGGCUAGACUGCC [C10G A14C G17A A25U], the self-cleavage worked out at 0.

With GGCAGAGCUAAACACAGCGAAGCAAAGUGUCUGUGGCUAUACUGCC [C10A U20A G21A G30U G40U], the self-cleavage came out at 0.01.

On to GGCAGAGCUGAACAUAGCGUAGCAAAGUGGCUGUGGUUGGACUGCC [C10G C15U G21A C37U A39G], for which the self-cleavage worked out at 0.01.

In the case of GGCAGAGCUGAACACCGCGUGGCAACGUGGCUGUGGCUAGAAUGCC [C10G A16C A26C C42A], the self-cleavage came to 0.

In the case of GGCAGAGCUAAACACAGCGUGGCAAAGUGGCCGUGGCUAGACUGCG [C10A U32C C46G], the self-cleavage was found to be 0.

With GGCAGAGCUGGACACAGCGUGGCAAAGUGGGUGUGGCUAGAUUACC [C10G A11G C31G C42U G44A], the self-cleavage is 0.

In the case of GGCAGAGCUGAUCAUAGGGUGGCAAAGUGGCUGUGGCUAGACUGCC [C10G A12U C15U C18G], the self-cleavage worked out at 0.01.

For GGCAGAGCUAAACACAGCGUGGCAAAGUGGCUUUUGCUAGACUGCC [C10A G33U G35U], the self-cleavage worked out at 0.01.

GGCAGAGCUGAACACAGGGUGGCAAAGUGCGUGUGGCUAGACUGCC [C10G C18G G30C C31G]: the self-cleavage is 0.

As for GGCAGAGCUAAACACAGCGUGGCAAAGUGGCGAUGGCUACACUGGG [C10A U32G G33A G40C C45G C46G], the self-cleavage was 0.01.

As for GGCAGAGCUGAACACAGCGUGGCUAACUGGCUUUGGCUAGACAGCC [C10G A24U G27C G33U U43A], the self-cleavage was 0.01.

Turning to GGCAGAGCUGAAAACAGUGUGGCAAAGUUGCUGUGGCUAUACUGCU [C10G C13A C18U G29U G40U C46U], the self-cleavage was determined as 0.01.

Turning to GGCAGAGCUGAACACAGAGUGGCAAACUGGCUGUGCCUAGACUGCC [C10G C18A G27C G36C], the self-cleavage is 0.02.

Turning to GGCAGAGCUAAACACAGCGUGGCAAAGUGACUAUGGCUAGACUGCC [C10A G30A G33A], the self-cleavage turned out to be 0.06.

With GGCAGAGCUGUACACAGCGUGGCUAAGUGGCUGUGGCUAGACUGCC [C10G A11U A24U], the self-cleavage turned out to be 0.01.

For the variant GGCAGAGCUGCACCCAGCGUGGCAAAGUGGCUGUGGCUAGACUGCC [C10G A11C A14C], the self-cleavage is 0.01.

Regarding GGCAGAGCUGAACAAAGCGUGGCAAAGUGACUGUGGCUAGACUGCC [C10G C15A G30A], the self-cleavage came to 0.02.

As to GGCAGAGCUGAACACCGCGUGGCAAAGUGGCUGUGGCUAGACUGUC [C10G A16C C45U], the self-cleavage is 0.02.

In the case of GGCAGAGCUGACCACAGCGUGGCAAUGUGACUGUGGCUAGACUGGC [C10G A12C A26U G30A C45G], the self-cleavage turned out to be 0.

In the case of GGCAGAGCUGAAAACAGCGUGGCAAAGUGGCUGUGGCUAGAUUGCC [C10G C13A C42U], the self-cleavage was 0.03.

On to GGCAGAGCUGAACCCAGAGUGGCAAAGUGGCUGUGGCUAGACUGCC [C10G A14C C18A], for which the self-cleavage worked out at 0.02.

On to GGCAGAGCUGAACACGGCGUGGCAAAGUGUUUGUGGCUAGACUGCC [C10G A16G G30U C31U], for which the self-cleavage turned out to be 0.03.

GGCAGAGCUGAACACAGAGUGGCAAAGCGGCUGUAGCUAGGCUGCC [C10G C18A U28C G35A A41G]: the self-cleavage is 0.01.

On to GGCAGAGCUAAACACAGCGUGGCAAAGUGCCUGUGGCUAGACUGAC [C10A G30C C45A], for which the self-cleavage came out at 0.02.

As for GGCAGAGCUAAACACAGCGUGGCAAACUGGCUGUGGCCAGACUGUC [C10A G27C U38C C45U], the self-cleavage was 0.02.

In the case of GGCAGAGCUAAACACAGCGUGGCAAAGUGGCUGUGGCCAGACUGGC [C10A U38C C45G], the self-cleavage was 0.02.

For the variant GGCAGAGCUGAACACAGUGUGGCAAAGAGGCUGUGGCUAGACUGCC [C10G C18U U28A], the self-cleavage was 0.2.

Turning to GGCAGAGCUGAACAGAGCGGGGCAAAGUGGCUGUGGCUAGACUGCC [C10G C15G U20G], the self-cleavage came to 0.01.

With GGCAGAGCUGAACACCGCGGGGCAAAGUGGCUGUGGCUAGAUUGCC [C10G A16C U20G C42U], the self-cleavage stood at 0.

For the variant GGCAGAGCUGAACCCAACGUGGCAAAGUGGCUGUGGCUAGACUGCC [C10G A14C G17A], the self-cleavage was determined as 0.02.

GGCAGAGCUGAACGCAGCGUGGUAAGGUGGCUGGGGCUACACUGCC [C10G A14G C23U A26G U34G G40C]: the self-cleavage stood at 0.01.

GGCAGAGCUAAACACAGCGUGGCAAAGGGGCUGUGUCUAGACUGCC [C10A U28G G36U]: the self-cleavage was found to be 0.02.

For GGCAGAGCUGCAAACAGCGUGGCAAAGUGGCUGUCGCUAGACUGCC [C10G A11C C13A G35C], the self-cleavage turned out to be 0.03.
